Experimental data taken from the antibiotic and cytotoxicity screens of Wong et al. (2023).
This is one part of the list.

How the values were obtained:
HSkMC = human skeletal muscle cells; test: cytotoxicity call (relative viability < 0.9); conditions: 10 µM
HepG2 = test: cytotoxicity call (relative viability < 0.9); conditions: 10 µM
S. aureus RN4220 = test: growth inhibition call (relative growth <= 0.2); conditions: 50 µM

Row | SMILES | cytotoxicity call (HSkMC) | cytotoxicity call (HepG2) | growth inhibition call (S. aureus RN4220)
1 | Cc1ccc(S(=O)(=O)N2C[C@@H](O)COC[C@@H]3O[C@H](CC(=O)NCc4ccc(Cl)c(Cl)c4)CC[C@H]32)cc1 | inactive | inactive | inactive
2 | C[C@@H]1CN([C@H](C)CO)C(=O)c2cc(NS(C)(=O)=O)ccc2O[C@@H]1CN(C)S(C)(=O)=O | inactive | inactive | inactive
3 | C[C@@H]1CCCCO[C@H](CN(C)S(C)(=O)=O)[C@@H](C)CN([C@H](C)CO)C(=O)c2cc(NS(=O)(=O)c3ccccc3)ccc2O1 | inactive | inactive | inactive
4 | C[C@H]1CN([C@@H](C)CO)C(=O)c2cccc(NC(=O)Nc3ccc(C(F)(F)F)cc3)c2O[C@H]1CN(C)Cc1ccc2c(c1)OCO2 | inactive | inactive | inactive
5 | Cc1ccc(S(=O)(=O)Nc2ccc3c(c2)C(=O)N([C@@H](C)CO)C[C@@H](C)[C@H](CN(C)Cc2ccc(C(=O)O)cc2)OCCCC[C@@H](C)O3)cc1 | inactive | inactive | inactive
6 | COC(=O)c1ccc([C@H]2C=C(C(=O)N3CCOCCOCCOCCOCC3)O[C@@H](OCCCCO)C2)cc1 | inactive | inactive | inactive
7 | Cc1ccc(S(=O)(=O)N(C)C[C@@H]2Oc3ccc(NC(=O)NC(C)C)cc3CC(=O)N([C@H](C)CO)C[C@@H]2C)cc1 | inactive | inactive | inactive
8 | COc1ccc(NC(=O)N(C)C[C@@H]2OCCCC[C@@H](C)Oc3ccc(NC(=O)C4CCCCC4)cc3C(=O)N([C@@H](C)CO)C[C@H]2C)cc1 | inactive | inactive | inactive
9 | CC(C)NC(=O)N(C)C[C@H]1Oc2c(NC(=O)C3CCOCC3)cccc2C(=O)N([C@H](C)CO)C[C@@H]1C | inactive | inactive | inactive
10 | C[C@H]1CCCCO[C@@H](CN(C)CC2CCCCC2)[C@@H](C)CN([C@@H](C)CO)C(=O)c2cc(NS(=O)(=O)c3cccs3)ccc2O1 | inactive | inactive | inactive
11 | O=C(C[C@@H]1CC=CCCC(=O)OCCNC1=O)NCCO | inactive | inactive | inactive
12 | Cc1ccc(S(=O)(=O)N[C@H]2CC[C@@H](CC(=O)NCc3ccc(Cl)c(Cl)c3)O[C@@H]2CO)cc1 | inactive | inactive | inactive
13 | COc1ccc(S(=O)(=O)Nc2ccc3c(c2)CC(=O)N([C@@H](C)CO)C[C@@H](C)[C@H](CN(C)S(C)(=O)=O)O3)cc1 | inactive | inactive | inactive
14 | COCCN1C[C@H]2[C@@H](OC)CCN(S(=O)(=O)c3cn(C)cn3)[C@H]2C1 | inactive | inactive | inactive
15 | CC(C)NC(=O)N(C)C[C@@H]1Oc2cc(-c3ccccc3F)ccc2S(=O)(=O)N([C@@H](C)CO)C[C@@H]1C | inactive | inactive | inactive
16 | O=C(C[C@H]1C[C@H]2c3cc(NC(=O)c4cccnc4)ccc3O[C@H]2[C@@H](CO)O1)NCc1cc(F)ccc1F | inactive | inactive | inactive
17 | C[C@@H]1CN([C@H](C)CO)S(=O)(=O)c2ccc(-c3ccncc3)cc2O[C@H]1CN(C)C(=O)c1ccc2c(c1)OCO2 | inactive | inactive | inactive
18 | CC(C)CNC(=O)[C@@H]1c2ccccc2C(=O)N(Cc2ccccc2C(F)(F)F)[C@H]1c1ccc(CO)cc1 | inactive | inactive | inactive
19 | C[C@@H]1CN([C@H](C)CO)C(=O)Cc2cc(NC(=O)NC3CCCCC3)ccc2O[C@H]1CN(C)Cc1ccc(-c2ccccc2)cc1 | inactive | active | inactive
20 | O=C(C[C@@H]1CC[C@H]2[C@@H](COC[C@H](O)CN2S(=O)(=O)c2ccccc2)O1)N1CCOCC1 | inactive | inactive | inactive
21 | O=c1[nH]cc(/N=C/c2ccncc2)c(=O)[nH]1 | inactive | inactive | inactive
22 | CC(=O)O[C@H]1CC[C@]2(C)[C@H]3CC[C@H]4[C@H]5CC(C)(C)CC[C@]5(C(=O)O)CC[C@@]4(C)[C@]3(C)CC[C@H]2C1(C)C | inactive | inactive | inactive
23 | C[C@@H]1CN([C@@H](C)CO)C(=O)Cc2cc(NS(=O)(=O)c3cn(C)cn3)ccc2O[C@H]1CN(C)Cc1ccc(C(=O)O)cc1 | inactive | inactive | inactive
24 | CCC(=O)NS(=O)(=O)c1ccccc1 | inactive | inactive | inactive
25 | C[C@H]1CN([C@@H](C)CO)S(=O)(=O)c2ccc(C#CC(C)(C)O)cc2O[C@H]1CN(C)Cc1ccccc1 | inactive | inactive | inactive
26 | C[C@@H]1CCCCO[C@@H](CN(C)Cc2ccc(Cl)c(Cl)c2)[C@@H](C)CN([C@@H](C)CO)C(=O)c2cc(NC(=O)CCC(F)(F)F)ccc2O1 | inactive | active | inactive
